# The supplement of paper PMC8728848
# Some of the results follow.
# What was measured:
# Test in all cases: glycan array binding signal (z-score within array); higher = stronger binding
# Conditions in all cases: glycan notation: IUPAC condensed, linker removed
# [1] = target: Fuc(a1-2)[GalNAc(a1-3)]Gal(b1-3)GlcNAc(b1-6)GalNAc
# Method in brief: (§1)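 The binding signal is a Z-score computed within each array. Data were drawn from 3228 arrays in the Consortium for Functional Glycomics database, restricted to those with a known protein sequence. Scores were averaged over arrays of the same protein sequence at different concentrations or buffers, and over linkers, and negative values can be taken as non-binding.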
# [2] = target: Fuc(a1-2)[GalNAc(a1-3)]Gal(b1-4)Glc
# Method in brief: as §1
# [3] = target: Fuc(a1-2)[GalNAc(a1-3)]Gal(b1-4)GlcNAc
# Method in brief: as §1
# [4] = target: Fuc(a1-2)[GalNAc(a1-3)]Gal(b1-4)GlcNAc(b1-2)Man
# Method in brief: as §1
# [5] = target: Fuc(a1-2)[GalNAc(a1-3)]Gal(b1-4)GlcNAc(b1-2)Man(a1-3)[Fuc(a1-2)[GalNAc(a1-3)]Gal(b1-4)GlcNAc(b1-2)Man(a1-6)]Man(b1-4)GlcNAc(b1-4)GlcNAc
# Method in brief: as §1
# [6] = target: Fuc(a1-2)[GalNAc(a1-3)]Gal(b1-4)GlcNAc(b1-2)Man(a1-3)[Fuc(a1-2)[GalNAc(a1-3)]Gal(b1-4)GlcNAc(b1-2)Man(a1-6)]Man(b1-4)GlcNAc(b1-4)[Fuc(a1-6)]GlcNAc
# Method in brief: as §1
# [7] = target: Fuc(a1-2)[GalNAc(a1-3)]Gal(b1-4)GlcNAc(b1-3)Gal(b1-4)GlcNAc
# Method in brief: as §1
# [8] = target: Fuc(a1-2)[GalNAc(a1-3)]Gal(b1-4)GlcNAc(b1-3)Gal(b1-4)GlcNAc(b1-3)Gal(b1-4)GlcNAc
# Method in brief: as §1
# [9] = target: Fuc(a1-2)[GalNAc(a1-3)]Gal(b1-4)GlcNAc(b1-3)GalNAc
# Method in brief: as §1
# [10] = target: Fuc(a1-2)[GalNAc(a1-3)]Gal(b1-4)GlcNAc(b1-3)[Fuc(a1-2)[GalNAc(a1-3)]Gal(b1-4)GlcNAc(b1-6)]GalNAc
# Method in brief: as §1
# [11] = target: Fuc(a1-2)[GalNAc(a1-3)]Gal(b1-4)GlcNAc(b1-6)GalNAc
# Method in brief: as §1
# [12] = target: Fuc(a1-2)[GalNAc(a1-3)]Gal(b1-4)[Fuc(a1-3)]GlcNAc
# Method in brief: as §1
# [13] = target: Fuc(a1-2)[GalNAc(a1-3)]Gal(b1-4)[Fuc(a1-3)]GlcNAc(b1-3)GalNAc
# Method in brief: as §1
# [14] = target: Fuc(a1-2)[GalNAc(a1-4)]Gal(b1-4)GlcNAc
# Method in brief: as §1
# [15] = target: Fuc(a1-2)[GalNAc(b1-3)]Gal
# Method in brief: as §1
# [16] = target: Fuc(a1-3)GlcNAc
# Method in brief: as §1
# [17] = target: Fuc(a1-3)[Gal(b1-4)]Glc6S
# Method in brief: as §1
# [18] = target: Fuc(a1-3)[Gal(b1-4)]GlcNAc
# Method in brief: as §1
# [19] = target: Fuc(a1-3)[Gal(b1-4)]GlcNAc(b1-2)Man
# Method in brief: as §1
# [20] = target: Fuc(a1-3)[Gal(b1-4)]GlcNAc(b1-2)Man(a1-3)[Fuc(a1-3)[Gal(b1-4)]GlcNAc(b1-2)Man(a1-6)]Man(b1-4)GlcNAc(b1-4)GlcNAc
# Method in brief: as §1
# [21] = target: Fuc(a1-3)[Gal(b1-4)]GlcNAc(b1-2)Man(a1-3)[Fuc(a1-3)[Gal(b1-4)]GlcNAc(b1-2)Man(a1-6)]Man(b1-4)GlcNAc(b1-4)[Fuc(a1-6)]GlcNAc
# Method in brief: as §1
# [22] = target: Fuc(a1-3)[Gal(b1-4)]GlcNAc(b1-3)Gal(b1-3)[Fuc(a1-4)]GlcNAc
# Method in brief: as §1
# [23] = target: Fuc(a1-3)[Gal(b1-4)]GlcNAc(b1-3)Gal(b1-4)[Fuc(a1-3)]GlcNAc
# Method in brief: as §1
# [24] = target: Fuc(a1-3)[Gal(b1-4)]GlcNAc(b1-3)Gal(b1-4)[Fuc(a1-3)]GlcNAc(b1-3)Gal(b1-4)[Fuc(a1-3)]GlcNAc
# Method in brief: as §1
# [25] = target: Fuc(a1-3)[Gal(b1-4)]GlcNAc(b1-3)GalNAc
# Method in brief: as §1
# [26] = target: Fuc(a1-3)[Gal(b1-4)]GlcNAc(b1-6)GalNAc
# Method in brief: as §1
# [27] = target: Fuc(a1-3)[Gal(b1-4)]GlcNAc(b1-6)[Gal(b1-3)GlcNAc(b1-3)]Gal(b1-4)Glc
# Method in brief: as §1
# [28] = target: Fuc(a1-3)[Gal(b1-4)]GlcNAc6S
# Method in brief: as §1
# [29] = target: Fuc(a1-3)[Gal3S(b1-4)]Glc
# Method in brief: as §1
# [30] = target: Fuc(a1-3)[Gal3S(b1-4)]GlcNAc
# Method in brief: as §1
# [31] = target: Fuc(a1-3)[Gal3S(b1-4)]GlcNAc6S
# Method in brief: as §1
# [32] = target: Fuc(a1-3)[GalNAc(b1-4)]GlcNAc
# Method in brief: as §1
# [33] = target: Fuc(a1-3)[GalNAc(b1-4)]GlcNAc6S
# Method in brief: as §1
# [34] = target: Fuc(a1-4)GlcNAc
# Method in brief: as §1
# [35] = target: Fuc(b1-3)GlcNAc
# Method in brief: as §1
# [36] = target: Gal(a1-2)Gal
# Method in brief: as §1
# [37] = target: Gal(a1-3)Gal
# Method in brief: as §1
# [38] = target: Gal(a1-3)Gal(b1-3)GlcNAc
# Method in brief: as §1
# [39] = target: Gal(a1-3)Gal(b1-3)GlcNAc(b1-2)Man
# Method in brief: as §1
# [40] = target: Gal(a1-3)Gal(b1-3)GlcNAc(b1-2)Man(a1-3)[Gal(a1-3)Gal(b1-3)GlcNAc(b1-2)Man(a1-6)]Man(b1-4)GlcNAc(b1-4)GlcNAc
# Method in brief: as §1
# [41] = target: Gal(a1-3)Gal(b1-3)GlcNAc(b1-3)GalNAc
# Method in brief: as §1
# [42] = target: Gal(a1-3)Gal(b1-3)GlcNAc(b1-6)GalNAc
# Method in brief: as §1
# [43] = target: Gal(a1-3)Gal(b1-3)[Fuc(a1-4)]GlcNAc(b1-2)Man(a1-3)[Gal(a1-3)Gal(b1-3)[Fuc(a1-4)]GlcNAc(b1-2)Man(a1-6)]Man(b1-4)GlcNAc(b1-4)GlcNAc
# Method in brief: as §1
# [44] = target: Gal(a1-3)Gal(b1-4)Glc
# Method in brief: as §1
# [45] = target: Gal(a1-3)Gal(b1-4)GlcNAc
# Method in brief: as §1
binder,measurement,setting,value
CBM40 CPF071 (Clostridium perfringens) (protein) MAHHHHHHVGTGSNDDDDKSPDPMLSSLGEYKDINLESSNASNITYDLEKYKNLDEGTIVVRFNSKDSKIQSLLGISNSKTKNGYFNFYVTNSRVGFELRNQKNEGNTQNGTENLVHMYKDVALNDGDNTVALKIEKNKGYKLFLNGKMIKEVKDTNTKFLNNIENLDSAFIGKTNRYGQSNEYNFKGNIGFMNIYNEPLGDDYLLSKTGETK,glycan array binding signal (z-score),[1],0.171
same,glycan array binding signal (z-score),[2],0.288
same,glycan array binding signal (z-score),[3],-0.116
same,glycan array binding signal (z-score),[4],-0.323
same,glycan array binding signal (z-score),[5],-0.216
same,glycan array binding signal (z-score),[6],-0.378
same,glycan array binding signal (z-score),[7],-0.103
same,glycan array binding signal (z-score),[8],-0.283
same,glycan array binding signal (z-score),[9],-0.63
same,glycan array binding signal (z-score),[10],-0.374
same,glycan array binding signal (z-score),[11],-0.391
same,glycan array binding signal (z-score),[12],0.073
same,glycan array binding signal (z-score),[13],0.134
same,glycan array binding signal (z-score),[14],-0.244
same,glycan array binding signal (z-score),[15],0.142
same,glycan array binding signal (z-score),[16],-0.562
same,glycan array binding signal (z-score),[17],-0.319
same,glycan array binding signal (z-score),[18],-0.067
same,glycan array binding signal (z-score),[19],-0.515
same,glycan array binding signal (z-score),[20],-0.445
same,glycan array binding signal (z-score),[21],-0.443
same,glycan array binding signal (z-score),[22],-0.321
same,glycan array binding signal (z-score),[23],-0.272
same,glycan array binding signal (z-score),[24],-0.15
same,glycan array binding signal (z-score),[25],-0.077
same,glycan array binding signal (z-score),[26],-0.084
same,glycan array binding signal (z-score),[27],0.177
same,glycan array binding signal (z-score),[28],-0.183
same,glycan array binding signal (z-score),[29],-0.323
same,glycan array binding signal (z-score),[30],0.024
same,glycan array binding signal (z-score),[31],0.19
same,glycan array binding signal (z-score),[32],0.303
same,glycan array binding signal (z-score),[33],-0.293
same,glycan array binding signal (z-score),[34],-0.272
same,glycan array binding signal (z-score),[35],0.378
same,glycan array binding signal (z-score),[36],-0.334
same,glycan array binding signal (z-score),[37],-0.072
same,glycan array binding signal (z-score),[38],-0.488
same,glycan array binding signal (z-score),[39],0.599
same,glycan array binding signal (z-score),[40],-0.034
same,glycan array binding signal (z-score),[41],-0.393
same,glycan array binding signal (z-score),[42],-0.284
same,glycan array binding signal (z-score),[43],-0.113
same,glycan array binding signal (z-score),[44],-0.3
same,glycan array binding signal (z-score),[45],-0.332
